Test results published in the antibiotic and cytotoxicity screens of Wong et al. (2023).
The list shows a part of the results.

These compounds were tested on HSkMC (human skeletal muscle cells) (assay: cytotoxicity call (relative viability < 0.9)). Conditions: 10 µM.

Row | SMILES | cytotoxicity call
1 | COc1ccc(NC(=O)O[C@H]2[C@@H]3OC(=O)[C@@H](Cc4ccc5ccccc5c4)C/C=C/C[C@H](Cc4ccc5ccccc5c4)C(=O)O[C@H]3[C@@H](OC)O[C@@H]2CO)cc1 | inactive
2 | COCC(=O)Nc1ccc2c(c1)OC[C@@H](C)N(C(=O)Cc1ccccn1)C[C@H](C)[C@@H](OC)CN(C)C2=O | inactive
3 | COCC#Cc1ccc2c(c1)O[C@H](CN(C)C(=O)C1CCOCC1)[C@H](C)CN([C@H](C)CO)S2(=O)=O | inactive
4 | C[C@@H]1CN([C@@H](C)CO)C(=O)CCCn2cc(nn2)CO[C@@H]1CN(C)C(=O)Nc1ccc(N2CCN(C)CC2)cc1 | inactive
5 | O=C(C[C@@H]1CC[C@@H](NC(=O)c2cccnc2)[C@H](CO)O1)NCCN1CCCCC1 | inactive
6 | Cc1noc(C)c1NC(=O)Nc1ccc2c(c1)C(=O)N([C@H](C)CO)C[C@@H](C)[C@@H](CN(C)Cc1ccc3c(c1)OCO3)OCCCC[C@H](C)O2 | inactive
7 | Cc1ccc(S(=O)(=O)N(C)C[C@H]2Oc3c(NS(=O)(=O)c4ccccc4)cccc3C(=O)N([C@H](C)CO)C[C@@H]2C)cc1 | inactive
8 | C=CCn1c(=O)c2c(nc(NCCO)n2C)n(C)c1=O | inactive
9 | COc1ccc(CN(C)C[C@@H]2OCCCC[C@@H](C)Oc3ccc(NC(=O)Nc4ccc5c(c4)OCO5)cc3C(=O)N([C@@H](C)CO)C[C@H]2C)cc1 | inactive
10 | CN(C)CCCCNC(=O)[C@H]1C[C@H]2C(=O)N[C@@H](Cc3ccccc3)C(=O)N2[C@H]1c1cccc(OCCO)c1 | inactive
11 | OCc1ncc[nH]1 | inactive
12 | O=C(O)CCCC[C@@H]1SC[C@@H]2NC(=O)N[C@@H]21 | inactive
13 | CCCN(C)C[C@H]1OCCCC[C@@H](C)Oc2ccc(NC(=O)c3ccccc3)cc2C(=O)N([C@@H](C)CO)C[C@H]1C | inactive
14 | O=C1O[C@@H](c2ccccc2)[C@@H](c2ccccc2)N2[C@@H](c3ccc(O)cc3)[C@]3(C(=O)Nc4ccc(C#CCCO)cc43)[C@@H](C(=O)NC[C@H](O)c3ccccc3)[C@H]12 | inactive
15 | C[C@@H]1CN([C@@H](C)CO)C(=O)c2cc(NC(=O)Nc3cccc4ccccc34)ccc2O[C@@H](C)CCCCO[C@@H]1CN(C)Cc1ccc2c(c1)OCO2 | inactive
16 | O=C1OC2(c3ccc(O)cc3Oc3cc(O)ccc32)c2ccccc21 | inactive
17 | C[C@@H]1COCCC(=O)N1 | inactive
18 | COc1ccc(NC(=O)N(C)C[C@@H]2Oc3ccc(NC(=O)CCCN(C)C)cc3C(=O)N([C@@H](C)CO)C[C@H]2C)cc1 | inactive
19 | C[C@H](CO)N1C[C@H](C)[C@H](CN(C)C(=O)C2CCCCC2)OCCCC[C@H](C)Oc2ccc(NS(=O)(=O)c3ccccc3)cc2C1=O | inactive
20 | C[C@H](CO)N1C[C@H](C)[C@H](CN(C)Cc2ccc3c(c2)OCO3)Oc2c(NC(=O)c3cnccn3)cccc2C1=O | inactive

Row | SMILES | cytotoxicity call
21 | C=CCC[C@@H](Cc1ccc(F)cc1)C(=O)O[C@@H](CNC(=O)[C@@H](CC=C)CC(=O)N[C@@H](CO)Cc1ccccc1)c1ccccc1 | active
22 | C[C@H](CO)N1C[C@H](C)[C@H](CN(C)S(=O)(=O)c2cn(C)cn2)OCc2ccccc2-c2ccccc2C1=O | inactive
23 | C[C@@H]1CCCCO[C@H](CN(C)S(C)(=O)=O)[C@@H](C)CN([C@@H](C)CO)C(=O)c2cc(NC(=O)c3ccncc3)ccc2O1 | inactive
24 | N#C[C@@H]1C(=O)NC(=O)[C@@H](C#N)C12CCCC2 | inactive
25 | COc1ccc(NC(=O)N(C)C[C@@H]2OCCCC[C@H](C)Oc3ccc(NC(=O)Nc4ccccc4)cc3C(=O)N([C@H](C)CO)C[C@@H]2C)cc1 | inactive
26 | COc1ccc(S(=O)(=O)Nc2ccc3c(c2)C(=O)N([C@@H](C)CO)C[C@@H](C)[C@@H](CN(C)Cc2ccccc2)OCCCC[C@@H](C)O3)cc1 | inactive
27 | C[C@H](CO)N1C[C@H](C)[C@@H](CN(C)Cc2ccc(-c3ccccc3)cc2)Oc2ccc(NS(=O)(=O)c3ccc(F)cc3)cc2CC1=O | inactive
28 | C[C@@H]1CN([C@H](C)CO)C(=O)c2cccc(NC(=O)NC3CCCCC3)c2O[C@@H]1CN(C)S(=O)(=O)c1cn(C)cn1 | inactive
29 | C[C@@H]1CN([C@H](C)CO)C(=O)c2cc(NC(=O)c3ccncc3)ccc2O[C@H]1CN(C)C(=O)Nc1ccc2c(c1)OCO2 | inactive
30 | C[C@@H]1CCCCO[C@H](CN(C)C(=O)c2ccccc2)[C@H](C)CN([C@@H](C)CO)C(=O)c2cc(NC(=O)Nc3ccc4c(c3)OCO4)ccc2O1 | inactive
31 | O=C(C[C@@H]1CC[C@H]2[C@@H](COC[C@@H](O)CN2C(=O)c2cnccn2)O1)N1CCN(c2ccccc2)CC1 | inactive
32 | CO[C@@H]1CN(C)C(=O)c2cc(NS(C)(=O)=O)ccc2OC[C@@H](C)N(C(=O)c2ccc3c(c2)OCO3)C[C@H]1C | inactive
33 | C[C@@H]1CN([C@H](C)CO)C(=O)c2cc(C#CC3(O)CCCC3)cnc2O[C@H]1CN(C)S(=O)(=O)c1ccc(F)cc1 | inactive
34 | C[C@@H]1CCCCO[C@H](CN(C)S(=O)(=O)c2ccc(F)cc2)[C@H](C)CN([C@H](C)CO)C(=O)c2cc(NS(=O)(=O)c3ccc(Cl)cc3)ccc2O1 | inactive
35 | C[C@@H](O)C#Cc1cnc2c(c1)C(=O)N([C@@H](C)CO)C[C@H](C)[C@H](CN(C)C(=O)Nc1ccc(C(F)(F)F)cc1)O2 | inactive
36 | CCCNC(=O)N1C[C@@H](O)COC[C@@H]2O[C@@H](CC(=O)N3CCOCC3)CC[C@H]21 | inactive
37 | C[C@H]1CN([C@@H](C)CO)C(=O)c2cccc(NC(=O)Nc3ccccc3)c2O[C@@H]1CN(C)S(C)(=O)=O | inactive
38 | N[C@@H](C(=O)O)c1ccc(C(=O)O)c(O)c1 | inactive
39 | Cc1c(-c2ccc(C(N)=O)c3[nH]c4cc(C(C)(C)O)ccc4c23)cccc1-n1cnc2ccccc2c1=O | active
40 | C[C@@H]1CCCCO[C@H](CN(C)S(=O)(=O)c2ccc(Cl)cc2)[C@@H](C)CN([C@@H](C)CO)C(=O)c2cc(NC(=O)Nc3ccc4c(c3)OCO4)ccc2O1 | inactive
